{"source": "PubChem BioAssay AID686970", "about": "(National Center for Advancing Translational Sciences (NCATS), 2013)", "note": "About 6,000 (1.7%) of roughly 360,000 compounds were called active. Inconclusive means that the source gave no clear call. Such entries were picked first, then a sample of the others. The call rests on the fitted dose curve; in most records, active means well fitted cell-killing curve with a large enough effect; inconclusive means small, poorly fitted or top-dose-only effect, or effect the other way; inactive means flat fitted curve, though single readings scatter. Potencies of inconclusive entries are left out as doubtful fits. Potency means the concentration at half of the fitted maximal effect; tags describe the fitted curve by direction and shape."}
{"experiment": "qHTS for induction of synthetic lethality in tumor cells producing 2HG: qHTS for the HT-1080-NT fibrosarcoma cell line;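 further: NT is the 2HG producing partner of a matched IDH1 knockdown line; nearly all actives have a fitted effect of over 55% in size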", "conditions": "HT-1080-NT fibrosarcoma viability, CellTiter-Glo ATP luminescence, 48 h; series mostly up to 46.1 µM", "how_it_was_run": "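Read-out is CellTiter-Glo luminescence after 10 minutes at room temperature, following 48 hours' compound treatment of HT-1080-NT cells (750 cells/well, RPMI, 5% FBS, 37 degrees C).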"}
{"molecule": "CC(C)Cn1c(N)c(C(=O)COC(=O)c2cc(C3CC3)nc3ccccc23)c(=O)n(C)c1=O", "Potency": "active: 20.6 µM"}
{"molecule": "CC(=O)Nc1ccc2c(=O)n(-c3ccccc3)sc2c1", "Potency": "inconclusive [cytotoxic, single point]"}
{"molecule": "CCOC(=O)c1c(NC(C)=O)sc(/C(C)=N/Nc2ccc(C(=O)O)cc2)c1C", "Potency": "inconclusive [cytotoxic, partial curve]"}
{"molecule": "Cc1ccc(Sc2cnc(N)nc2C)cc1", "Potency": "inactive"}
{"molecule": "CCOC(=O)c1c(NC(=O)c2cccnc2Cl)sc(C(=O)N(C)C)c1C", "Potency": "inactive"}
{"molecule": "S=C(Nc1ccc(Nc2ccccc2)cc1)Nc1ccccn1", "Potency": "inconclusive [cytotoxic, partial curve]"}
{"molecule": "N#Cc1c(-c2ccc(F)cc2)c(-c2ccc(F)cc2)nn(CCO)c1=O", "Potency": "active: 6.51 µM"}
{"molecule": "COc1cccc(Cn2cnc(-c3ccccc3OC)c2-c2cccs2)c1", "Potency": "inconclusive [cytotoxic, single point]"}
{"molecule": "Cc1ccc(NS(=O)(=O)c2ccc3c(c2)NC(=O)CO3)cc1C", "Potency": "inactive"}
{"molecule": "O=C(COc1ccccc1Cl)Nc1ccc2c(c1)C(=O)NC2=O", "Potency": "inconclusive [cytotoxic, single point]"}
{"molecule": "CCCCN(C(=O)CSCc1ccc(C)cc1)c1c(N)n(Cc2ccccc2)c(=O)[nH]c1=O", "Potency": "inconclusive [cytotoxic, single point]"}
{"molecule": "COc1ccc(C2=C(C=O)Cc3ccccc3O2)cc1", "Potency": "inconclusive [cytotoxic, single point]"}
{"molecule": "CC(=O)Nc1cc(-c2cccc(NS(C)(=O)=O)c2)cn2c(-c3ccc(F)c(Cl)c3)cnc12", "Potency": "inconclusive [cytotoxic, single point]"}
{"molecule": "CCCCNC(=S)Nc1ccc(SC(F)F)cc1", "Potency": "inconclusive [cytotoxic, partial curve, poor fit]"}
{"molecule": "C(=C\\c1ccccc1)/CN1CCN(C(c2cccs2)c2nnnn2-c2ccc3c(c2)OCCO3)CC1", "note": "(centres undefined)", "Potency": "inconclusive [cytotoxic, single point]"}
{"molecule": "CCOc1ccc(N2CC(C(=O)Nc3cc(S(=O)(=O)N4CCCCC4)ccc3C)CC2=O)cc1", "note": "(centres undefined)", "Potency": "inactive"}
{"molecule": "Cc1cc(Br)c2c(c1)/C(=C/C(=O)c1cccs1)C(=O)N2", "Potency": "inconclusive [cytotoxic, single point]"}
{"molecule": "COc1ccc(S(=O)(=O)Nc2ccc3oc(C)c(C(C)=O)c3c2)cc1", "Potency": "inconclusive [cytotoxic, partial curve]"}
{"molecule": "COc1cccc(/C=N/NC(=O)c2nc(-c3ccccc3)cc(-c3ccccc3)n2)c1", "Potency": "inactive"}
